# From PubChem BioAssay AID1625 (Sanford-Burnham Center for Chemical Genomics, 2009)
# This is one part of the list. The main result of the screen is listed elsewhere. These columns were measured beside it and carry no call. Most of these compounds were active or inconclusive in the main read-out, so they are no random draw.
# Test: up-regulation of insulin promoter-GFP reporter – imaging, high-content screening, mouse beta cells (AID 1625);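 further: total cells summed across four imaged fields per well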
# Conditions: MIN6 insulin promoter-GFP reporter, measured here: cytotoxicity, nuclei count, at 5 µM
row,Compound,cell count [cells]
1,O=c1c(N2CCOCC2)c(N2CCOCC2)c1=O,911
2,CCOc1ccc(Nc2nc(NCC3CCCO3)c3ccccc3n2)cc1 (stereo not drawn),409
3,COc1ccc(-c2ccc3c(N)c(C(=O)c4cccc(OC)c4)sc3n2)cc1,797
4,OC(CNCCC1C=Nc2ccccc21)Cn1c2ccc(Cl)cc2c2cc(Cl)ccc21 (stereo not drawn),380
5,O=C(/C=C/c1ccc(N2CCC(c3ccccc3)=N2)cc1)c1ccccc1,1180
6,CCCCn1c(SCC(=O)O)nc2ccccc21,918
7,COc1ccc(C2C=C(c3cccs3)Nc3nc(CCCO)nn32)cc1 (stereo not drawn),1290
8,O=C(c1ccc(CS(=O)(=O)c2ccc(Br)cc2)o1)N1CCN(C2CCCCC2)CC1,276
9,COc1cccc(N2CCN(c3ncnc4c3[nH]c3ccccc34)CC2C)c1 (stereo not drawn),371
10,S=C(Nc1ccc(Cl)c(Cl)c1)NC1CCN(Cc2ccccc2)CC1,479
11,O=S(=O)(Nc1cc(Sc2cccc3cccnc23)c(O)c2ccccc12)c1ccccc1,268
12,CCOC(=O)N1[C@@H]2C=C(C)[C@@H]2[C@@H]2[C@@H](C)C(=O)N21,491
13,CC(=O)C1=C(C)NC(SCC(=O)c2ccc(Cl)c(Cl)c2)=C(C#N)C1c1ccco1 (stereo not drawn),945
14,CCn1ncc(C2=NOC(C(=O)Nc3cnn(C45CC6CC(CC(C6)C4)C5)c3)C2)c1C (stereo not drawn),453
15,CC1(C)COC(/C=C/c2ccc([N+](=O)[O-])cc2)=N1,437
16,Cc1nn(C)cc1N1C(=O)c2cccc3c(N)ccc(c23)C1=O,1480
17,O=c1c(Cl)c(Cl)cnn1Cc1ccccc1Cl,423
18,COC(=O)C1=C(Nc2ccc(C)cc2)C=C(C)C(C(=O)OC)C1c1ccc(F)cc1 (stereo not drawn),476
19,CS(=O)(=O)ON=C1CCN(S(=O)(=O)c2ccccc2)CC1,1390
20,COc1cccc(Cn2c(NCc3ccco3)nc3c2c(=O)n(C)c(=O)n3C)c1,314
21,C/C(=N/NC(=O)CCC(=O)Nc1cccc(Cl)c1)c1ccc(C)cc1,464
22,CCCCCCN1C=CC(=C/C=C(\C#N)C(=O)OCC)C=C1,1660
23,CN1CC=C2C(C#N)=C(N)C(C#N)(C#N)[C@H](c3cccc(Cl)c3)C2C1 (stereo partly drawn),908
24,O=C1C(Cl)=C(N2CCN(c3ccccc3[N+](=O)[O-])CC2)C(=O)c2ccccc21,225
25,C=CCNC(=O)C1CCN(S(=O)(=O)c2ccc(Br)cc2)CC1,1120
26,Cc1ccc(-c2ccc(/C=C(\C#N)C(=O)Nc3cc(C)nn3-c3ccccc3)o2)cc1,1630
27,Cc1ccnc(N2C(=O)c3cccc4c([N+](=O)[O-])ccc(c34)C2=O)c1,1440
28,O=C1c2cccc3c(O)ccc(c23)C(=O)N1Cc1ccccc1,955
